Patent US4055468A, “Processes for producing physiologically active peptide and its N-acyl derivatives” (priority 1974, dated 1977)
Not every detail of the peptide structures is certain; ends, links or a residue may be inferred. For some assays here: For at least one compound, name, drawing or mass did not settle the structure. Numbered stars: 1 amine (or outer) side, 2 acyl side, 3 side chain; on linkers, the order of the positions; unused ones are H or OH. Square brackets hold non-standard residues; d marks the D form. Peptide text beside a SMILES is read from it. * marks the point of attachment. X1 = CC(C)CC(N[*:1])C(O)CC(=O)[*:2]; Isovaleryl = CC(C)CC(=O)*

Legend:
[1] = test system: enzyme decomposing R--Val--Val--X--Ala--X to Val--X--Ala--X; assay: Substrate specificity of the purified enzyme; format: biochemical, Bacillus sphaericus ATCC 14577; details: for susceptibility to the enzyme (hydrolysis): in words; for Products L--Valine / Products Organic acids / Products Val--X--Ala--X: 20 hours reaction, 37° C, pH 7.0; for Products Val--X--Ala--X: starred cells: Val--X, Val--X--Ser, Val--X--Ala--Thr or Val--X--Ser--X instead of Val--X--Ala--X
Procedure: A medium having the same composition as in Experiment 1 was prepared and 50 ml of the medium was poured into a 500 ml flask. After sterilization at 120° C for 10 minutes, the medium was inoculated with Bacillus sphaericus ATCC 14577 and incubated on a reciprocal shaker (120 r.p.m.) at 30° C for 24 hours to obtain a seed culture. To a 20l jar fermentor was added to 10l of the medium having the same composition, sterilized at 120° C for 15 minutes and inoculated with the seed culture. The cultivation was performed at 30° C with agitation (300 r.p.m.) and aeration (5l/minute).
After 15 hours growth, isovalery-L-valvy-L-valyl-4-amino-3-hydroxy-6-methylheptanoyl-L-alanyl-4-amino-3-hydroxy-6-methylheptanoic acid was added to the culture in a concentration of 50 meg/ml and the cultivation was continued for another 33 hours. Cells were harvested by centrifugation with a Spharpless centrifuge, suspended in 2l of cold 0.01M phosphate buffer, pH 7.0, and disrupted by sonication 20 Kc for 2 minutes. These and the following procedures were carried out under 4° C. A supernatant from the sonicate was heated at 60° C for 10 minutes at pH 7.0. The resulting precipitate was removed by centrifugation and 3.8 g of streptomycin sulfate was added to 1.7l of the supernatant. Precipitated nucleic acid was removed by centrifugation. The thus obtained supernatant was dialyzed against 0.01M Tris--HCl buffer, pH 8.0, for 16 hours. Onto a DEAE cellulose column (1l), previously equilibrated to 0.01M Tris-HCl buffer, pH 8.0, the dialyzed supernatant was adsorbed and the column was washed with the same buffer and with 0.1M NaCl dissolved in the buffer, successively. The enzyme was eluted with 3l of 0.3M NaCl dissolved in the Tris buffer. The active eluate was concentrated using an ultrafiltration apparatus and subjected to gel filtration with a Sephadex G-200 column (.phi.= 5 × 100 cm) equilibrated to the same Tris buffer containing 0.2M NaCl. The active fractions from the column were collected and dialyzed against 0.01M phosphate buffer, pH 6.5, for more than 6 hours. The dialyzed solution was adsorbed onto a DEAE cellulose column (50 ml) equilibrated to the same phosphate buffer. The column was washed with the buffer and 150 ml of the same buffer containing 0.1M NaCl, successively. The enzyme was eluted with a linear gradient of 600 ml of 0.1M NaCl to 600 ml of 0.3M NaCl in the same phosphate buffer.
The actions on the two bonds have been thought to be different enzymatic actions, such as aminoacylase action 1 and peptidase action 2, but this enzyme has both the actions.
The activity was assayed in the present invention according to the following method: A reaction mixture consisting of 5 mg/ml IVA--VAl--Val--X--Ala--X, 0.05M phosphate buffer, pH 7.0, and enzyme in a total volume of 1.0 ml was incubated at 37° C for 30 minutes. Isovaleric acid formed was extracted with ether and assayed by gas chromatography with n-valeric acid as an internal standard. A unit of activity corresponds to the formation of one n mole of isovaleric acid per minute.

[2] = test system: Micrococcus rubens ATCC 186 cell suspension; assay: Effect of acyl radical on degradation activity of cell suspension
[3] = test system: Bac. sphaericus ATCC 14577 cell suspension; assay: as above; format: cell-based, Bacillus sphaericus ATCC 14577; details: pH 7.0

SMILES	susceptibility to the enzyme (hydrolysis) [1]	Activity (volume of the eluate necessary to attain ID50 of the pepsin-inhibitory activity) ([2]; period 0 min) [µL]	Activity (volume of the eluate necessary to attain ID50 of the pepsin-inhibitory activity) ([2]; period 60 min) [µL]	Activity (volume of the eluate necessary to attain ID50 of the pepsin-inhibitory activity) ([3]; period 0 min) [µL]	Activity (volume of the eluate necessary to attain ID50 of the pepsin-inhibitory activity) ([3]; period 60 min) [µL]	also measured
CC(C)CC(=O)N[C@H](C(=O)N[C@H](C(=O)NC(CC(C)C)C(O)CC(=O)O)C(C)C)C(C)C (some centres unmarked) [IVA--Val--Val--X]	Hydrolysis takes place					
CCCC(=O)N[C@H](C(=O)N[C@H](C(=O)NC(CC(C)C)C(O)CC(=O)N[C@@H](C)C(=O)NC(CC(C)C)C(O)CC(=O)O)C(C)C)C(C)C (some centres unmarked) [CH3(CH2)2CO]		> 200	80	> 200	65	
CC(C)CCC(=O)N[C@H](C(=O)N[C@H](C(=O)NC(CC(C)C)C(O)CC(=O)N[C@@H](C)C(=O)NC(CC(C)C)C(O)CC(=O)O)C(C)C)C(C)C (single isomer, unassigned) [drawing 3]		> 200	80	> 200	65	
CC(C)CC(=O)N[C@H](C(=O)N[C@H](C(=O)NC(CC(C)C)C(O)CC(=O)N[C@@H](CO)C(=O)NC(CC(C)C)C(O)CC(=O)O)C(C)C)C(C)C (some centres unmarked) [IVA--Val--Val--X--Ser--X]	susceptible					
CC(C)CC(=O)N[C@H](C(=O)O)C(C)C [IVA--Val]						Products L--Valine [1]: -; Products Organic acids [1]: -; Products Val--X--Ala--X [1]: -
CCCCC(=O)N[C@H](C(=O)N[C@H](C(=O)NC(CC(C)C)C(O)CC(=O)N[C@@H](C)C(=O)NC(CC(C)C)C(O)CC(=O)O)C(C)C)C(C)C (some centres unmarked) [CH3(CH2)3CO]		> 200	80	> 200	65	
CC(C)CC(NC(=O)[C@H](C)NC(=O)CC(O)C(CC(C)C)NC(=O)[C@@H](NC(=O)[C@@H](NC(=O)C(C)C)C(C)C)C(C)C)C(O)CC(=O)O (some centres unmarked)		> 200	80	> 200	65	
CC(C)CC(=O)N[C@H](C(=O)N[C@H](C(=O)NC(CC(C)C)C(O)CC(=O)N[C@@H](C)C(=O)NC(CC(C)C)C(O)CC(=O)O)C(C)C)C(C)C (stereo partly drawn) [Isovaleryl--Val--Val--X--Ala--X, Isovaleryl-L-valyl-L-valyl-4-amino-3-hydroxy-6-methylheptanoyl-L-alanyl-4-amino-3-hydroxy-6-methylheptanoic acid]	split					Products L--Valine [1]: ++; Products Organic acids [1]: ++; Products Val--X--Ala--X [1]: ++; susceptibility to the enzyme (hydrolysis) ([1]; listed as IVA--Val--Val--X--Ala--X): susceptible
CC(C)CC(=O)N[C@H](C(=O)N[C@H](C(=O)NC(CC(C)C)C(O)CC(=O)N[C@@H](CO)C(=O)O)C(C)C)C(C)C (some centres unmarked) [IVA--Val--Val--X--Ser]	susceptible					
CC(C)CC(=O)N[C@H](C(=O)N[C@H](C(=O)O)C(C)C)C(C)C [IVA--Val--Val] (Isovaleryl-Val-Val-OH)	not split					
CC(C)CCC(=O)N[C@H](C(=O)N[C@H](C(=O)NC(CC(C)C)C(O)CC(=O)N[C@@H](C)C(=O)NC(CC(C)C)C(O)CC(=O)O)C(C)C)C(C)C (single isomer, unassigned) [Isocaproyl--Val--Val--X--Ala--X]	split					
CCCCCC(=O)N[C@H](C(=O)N[C@H](C(=O)NC(CC(C)C)C(O)CC(=O)N[C@@H](C)C(=O)NC(CC(C)C)C(O)CC(=O)O)C(C)C)C(C)C (stereo partly drawn) [Caproyl--Val--Val--X--Ala--X, n-caproyl-L-valyl-L-valyl-4-amino-3-hydroxy-6-methylheptanoyl-L-alanyl-4-amino-3-hydroxy-6-methylheptanoic acid]	split	> 200	85	> 200	70	
CCC(C)CCC(=O)N[C@H](C(=O)N[C@H](C(=O)NC(CC(C)C)C(O)CC(=O)N[C@@H](C)C(=O)NC(CC(C)C)C(O)CC(=O)O)C(C)C)C(C)C (some centres unmarked)		> 200	80	> 200	70	
CCC(=O)N[C@H](C(=O)N[C@H](C(=O)NC(CC(C)C)C(O)CC(=O)N[C@@H](C)C(=O)NC(CC(C)C)C(O)CC(=O)O)C(C)C)C(C)C (some centres unmarked) [Propionyl--Val--Val--X--Ala--X]	split	> 200	80	> 200	65	
CC(=O)N[C@H](C(=O)N[C@H](C(=O)NC(CC(C)C)C(O)CC(=O)N[C@@H](C)C(=O)NC(CC(C)C)C(O)CC(=O)O)C(C)C)C(C)C (some centres unmarked) [Acetyl--Val--Val--X--Ala--X]	split	> 200	80	> 200	65	
CC(C)CC(=O)N[C@H](C(=O)N[C@H](C(=O)NC(CC(C)C)C(O)CC(=O)N[C@@H](C)C(=O)N[C@H](C(=O)O)[C@@H](C)O)C(C)C)C(C)C (some centres unmarked) [IVA--Val--Val--X--Ala--Thr] (Isovaleryl-VV[X1]AT-OH)	susceptible					
CCCCCCCC(=O)N[C@H](C(=O)N[C@H](C(=O)NC(CC(C)C)C(O)CC(=O)N[C@@H](C)C(=O)NC(CC(C)C)C(O)CC(=O)O)C(C)C)C(C)C (some centres unmarked) [CH3(CH2)6CO]		> 200	80	> 200	65	
